Measured values from the supplement of paper PMC10369915.
This is one part of the list. No stated cut-off is given here; in the data, active = 3.2 or more and inactive = the rest. Most of these values are background signal.

Columns and labels:
Test in all cases: enrichment score (SH2-bound / input frequency) (ratio); bacterial display of known human phosphotyrosine sites (pTyr-Var adds point mutants) read by sequencing; higher = stronger binding; tyrosines were phosphorylated by kinases first
Conditions in all cases: peptide library: pTyr-Var
SHP2 C-SH2 domain E139D = biological target: SHP2 C-SH2 domain E139D
[1] = biological target: SHP2 C-SH2 domain wild-type
SHP2 N-SH2 domain L43F = biological target: SHP2 N-SH2 domain L43F
SHP2 N-SH2 domain T42A = biological target: SHP2 N-SH2 domain T42A
SHP2 N-SH2 domain T52S = biological target: SHP2 N-SH2 domain T52S
[2] = biological target: SHP2 N-SH2 domain wild-type
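Further: displayed peptides selected on beads carrying the immobilized SH2 domain, with library peptides lacking any tyrosine serving as negative controls.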

Binder	enrichment score (SHP2 C-SH2 domain E139D)	enrichment score [1]	enrichment score (SHP2 N-SH2 domain L43F)	enrichment score (SHP2 N-SH2 domain T42A)	enrichment score (SHP2 N-SH2 domain T52S)	enrichment score [2]
METKGYQSLPE [NR3C2_Y6_H7Q]	inactive: 0.699	inactive: 0.554	inactive: 0.874	inactive: 0.653	inactive: 0.603	inactive: 0.655
AACQHYGVRTC [NR4A2_Y275]	inactive: 1.21	inactive: 1.25	inactive: 1.08	inactive: 1.08	inactive: 1.07	inactive: 1.19
HQKKPYCHTHN [NRAP_Y53_A56T]	active: 6.43	active: 4.73	active: 6.52	active: 5.16	active: 5.38	active: 4.54
AEQEEYSAMRD [NRAS_Y64_G60E]	inactive: 0.536	inactive: 0.36	inactive: 0.492	inactive: 0.406	inactive: 0.445	inactive: 0.55
LSPPVYLTNEW [NRK_Y885_I880L]	inactive: 1.24	inactive: 1.12	inactive: 1.24	inactive: 1.6	inactive: 1.58	inactive: 1.15
MPQNEYIELHR [NSA2_Y6]	inactive: 0.823	inactive: 0.824	inactive: 0.883	inactive: 0.997	inactive: 0.867	inactive: 0.902
RARIRYAQEHD [NSD1_Y1987]	inactive: 0.215	inactive: 0.229	inactive: 0.326	inactive: 0.37	inactive: 0.247	inactive: 0.262
KVASVYEAPGF [NT5C_Y65]	inactive: 0.865	inactive: 0.61	inactive: 0.779	inactive: 0.53	inactive: 0.626	inactive: 0.834
LGKLIYPVGFW [NTHL1_Y177]	inactive: 2.56	inactive: 2.46	inactive: 2.65	inactive: 2.12	inactive: 2.58	inactive: 2.28
INMKKYCKKDF [NTN1_Y490_YF]	inactive: 1.72	inactive: 1.75	inactive: 1.74	inactive: 1.58	inactive: 1.7	inactive: 1.91
IKNPQYFSDAC [NTRK1_Y496_E492K]	inactive: 0.936	inactive: 0.855	inactive: 0.694	inactive: 0.779	inactive: 0.938	inactive: 0.975
LMVFEYMRHGN [NTRK1_Y591_D596N]	active: 3.21	inactive: 2.16	inactive: 2.52	inactive: 1.96	inactive: 2.88	inactive: 2.36
MSRDIYSTDYY [NTRK1_Y676]	inactive: 0.65	inactive: 0.507	inactive: 0.905	inactive: 0.486	inactive: 0.647	inactive: 0.53
MSRFIYSTDFF [NTRK1_Y676_D674Y_YF]	inactive: 1.91	inactive: 1.78	inactive: 1.88	inactive: 1.78	inactive: 1.82	inactive: 1.71
PESILYRKFTT [NTRK1_Y701]	inactive: 0.392	inactive: 0.358	inactive: 0.428	inactive: 0.5	inactive: 0.549	inactive: 0.247
PESIPYRKFTT [NTRK1_Y701_L700P]	inactive: 0.659	inactive: 0.654	inactive: 0.408	inactive: 0.915	inactive: 0.382	inactive: 0.881
CPPEVYAIMRG [NTRK1_Y757]	inactive: 0.458	inactive: 1.25	inactive: 0.514	inactive: 0.555	inactive: 0.431	inactive: 0.718
SPPEVYAIMRG [NTRK1_Y757_C752S]	inactive: 0.47	inactive: 0.589	inactive: 0.406	inactive: 0.298	inactive: 0.394	inactive: 0.558
QAPPIYLDVLG [NTRK1_Y791_V790I]	inactive: 0.813	inactive: 0.894	inactive: 1.01	inactive: 1.07	inactive: 0.882	inactive: 0.894

Binder	enrichment score (SHP2 C-SH2 domain E139D)	enrichment score [1]	enrichment score (SHP2 N-SH2 domain L43F)	enrichment score (SHP2 N-SH2 domain T42A)	enrichment score (SHP2 N-SH2 domain T52S)	enrichment score [2]
ISRDVYSTDFF [NTRK2_Y702_M697I_YF]	inactive: 0.706	inactive: 0.762	inactive: 0.869	inactive: 0.634	inactive: 0.759	inactive: 0.945
MSRDVYSTDCF [NTRK2_Y702_Y706C_YF]	inactive: 0.767	inactive: 0.797	inactive: 0.681	inactive: 0.731	inactive: 0.638	inactive: 0.798
MSRDVYSTDFF [NTRK2_Y702_YF]	inactive: 0.804	inactive: 0.616	inactive: 0.805	inactive: 0.719	inactive: 0.764	inactive: 0.948
VYSIDYYRVGG [NTRK2_Y706_T704I]	inactive: 1.61	inactive: 1.92	inactive: 1.8	inactive: 1.38	inactive: 1.56	inactive: 1.4
VFSIDYFRVGG [NTRK2_Y706_T704I_YF]	inactive: 2.7	inactive: 2.91	inactive: 2.11	inactive: 2.22	inactive: 2.68	inactive: 2.15
VYSTDCYRVGG [NTRK2_Y706_Y706C]	inactive: 0.792	inactive: 0.991	inactive: 0.749	inactive: 0.737	inactive: 0.672	inactive: 1.03
VFSTDYFRVGG [NTRK2_Y706_YF]	inactive: 1.25	inactive: 1.47	inactive: 1.08	inactive: 1.01	inactive: 1.13	inactive: 1.28
YSIDYYRVGGH [NTRK2_Y707_T704I]	inactive: 1.08	inactive: 1.02	inactive: 0.978	inactive: 0.793	inactive: 0.944	inactive: 0.868
FSTDFYRVGGH [NTRK2_Y707_YF]	inactive: 0.965	inactive: 0.703	inactive: 0.773	inactive: 1.04	inactive: 0.888	inactive: 0.832
LDVDVYGPSVP [NUBPL_Y109]	inactive: 1.11	inactive: 0.694	inactive: 1.12	inactive: 0.679	inactive: 0.665	inactive: 0.944
ANSSFYSTRSA [NUMA1_Y1836]	inactive: 0.677	inactive: 0.569	inactive: 0.613	inactive: 0.525	inactive: 0.718	inactive: 0.536
ANSSFHSTRSA [NUMA1_Y1836_Y1836H]	inactive: 0.431	inactive: 0.366	inactive: 0.373	inactive: 0.318	inactive: 0.295	inactive: 0.461
TNRSVYFKPSL [NUP153_Y382]	inactive: 0.93	inactive: 1.59	inactive: 0.967	inactive: 2.91	inactive: 1.16	inactive: 0.767
TNRSFYFKPSL [NUP153_Y382_V381F]	inactive: 0.946	inactive: 0.779	inactive: 0.692	inactive: 1.79	inactive: 0.785	inactive: 0.769
PLLLSYFLIKW [NUP160_Y773_YF]	inactive: 2.59	inactive: 2.27	inactive: 3.07	inactive: 2.32	inactive: 2.62	inactive: 2.95
YKWAVYCIIGR [NUP93_Y391_R388W]	inactive: 1.9	inactive: 1.44	inactive: 1.87	inactive: 1.47	inactive: 1.96	inactive: 1.64
FKWAVYCIIGR [NUP93_Y391_R388W_YF]	inactive: 1.47	inactive: 1.39	inactive: 1.22	inactive: 1.39	inactive: 1.26	inactive: 1.28
RHPEVYHHLGV [NVL_Y290]	inactive: 2.84	active: 3.29	active: 3.25	inactive: 2.45	inactive: 3.04	active: 3.28
